The list shows a part of the results. Many values rest on one well or one pass, so single values are uncertain.
Assays:
Assay in all cases: cell count relative to DMSO control; melanoma cells; higher = more viable cells
Settings in all cases: library dose: low library concentration; 72 h
COLO792 = test system: COLO792
COLO800 = test system: COLO800
COLO829 = test system: COLO829
G361 = test system: G361
IPC-298 = test system: IPC-298
IST-MEL1 = test system: IST-MEL1
LB2518-MEL = test system: LB2518-MEL
LOXIMVI = test system: LOXIMVI
MEL-HO = test system: MEL-HO
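Also: cell number obtained by counting DAPI-stained nuclei in high-throughput microscope images with image analysis software, screen run in 1,536-well plates.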

Structure (SMILES) | cell count (COLO792) [%] | cell count (COLO800) [%] | cell count (COLO829) [%] | cell count (G361) [%] | cell count (IPC-298) [%] | cell count (IST-MEL1) [%] | cell count (LB2518-MEL) [%] | cell count (LOXIMVI) [%] | cell count (MEL-HO) [%]
Cc1ccc(Nc2nccc(N(C)c3ccc4c(C)n(C)nc4c3)n2)cc1S(N)(=O)=O [Pazopanib] + CN(NC(=O)CC(=O)NN(C)C(=S)c1ccccc1)C(=S)c1ccccc1 [STA4783] (first compound 0.4 µM, partner dose 0.006 µM) | 61.7 | 60.3 | 73.9 | 67.2 | 74.8 | 69.2 | 72.7 | 52.1 | 82.3
Cc1ccc(Nc2nccc(N(C)c3ccc4c(C)n(C)nc4c3)n2)cc1S(N)(=O)=O [Pazopanib] + O=S(=O)(c1ccccc1)N(CC(F)(F)F)c1ccc(C(O)(C(F)(F)F)C(F)(F)F)cc1 [T0901317] (first compound 0.4 µM, partner dose 1.4 µM) | 95.6 | 109 | 93.6 | 86.4 | 80.7 | 99.2 | 111 | 92.4 | 92
O=C(/C=C/c1cccnc1)NCCCCC1CCN(C(=O)c2ccccc2)CC1 + CN(C)S(=O)(=O)c1ccc2c(c1)/C(=C/c1cc3c([nH]1)CCCC3)C(=O)N2 [SU6656] (first compound 0.01 µM, partner dose 0.4 µM) | 57.8 | 33.4 | 76.6 | 10.6 | 47.9 | 74.6 | 90.1 | 82.7 | 42.7
Cc1ccc(Nc2nccc(N(C)c3ccc4c(C)n(C)nc4c3)n2)cc1S(N)(=O)=O [Pazopanib] + O=C1NC(=O)/C(=C/c2ccc(-c3ccc(F)cc3O)o2)S1 [AS252424] (first compound 0.4 µM, partner dose 1 µM) | 95.8 | 127 | 103 | 90.5 | 77.8 | 90.8 | 73.5 | 102 | 85.2
CC1(C)CCC(c2ccc(Cl)cc2)=C(CN2CCN(c3ccc(C(=O)NS(=O)(=O)c4ccc(N[C@H](CCN5CCOCC5)CSc5ccccc5)c(S(=O)(=O)C(F)(F)F)c4)cc3)CC2)C1 + CCc1ccc(CCOc2ccc(CC3SC(=O)NC3=O)cc2)nc1 [pioglitazone] (first compound 0.4 µM, partner dose 2 µM) | 63.6 | 52.1 | 108 | 85.2 | 98.9 | 81.9 | 82.1 | 39.3 | 84.5
CC1(C)CCC(c2ccc(Cl)cc2)=C(CN2CCN(c3ccc(C(=O)NS(=O)(=O)c4ccc(N[C@H](CCN5CCOCC5)CSc5ccccc5)c(S(=O)(=O)C(F)(F)F)c4)cc3)CC2)C1 + COC(=O)c1sccc1S(=O)(=O)Nc1ccc(Nc2ccccc2)cc1OC [GSK0660] (first compound 0.4 µM, partner dose 1 µM) | 62 | 90 | 99.8 | 78.6 | 94.9 | 89.4 | 80.7 | 53.2 | 64
CC1(C)CCC(c2ccc(Cl)cc2)=C(CN2CCN(c3ccc(C(=O)NS(=O)(=O)c4ccc(N[C@H](CCN5CCOCC5)CSc5ccccc5)c(S(=O)(=O)C(F)(F)F)c4)cc3)CC2)C1 + COc1cc(Nc2ncc(F)c(Nc3ccc4c(n3)NC(=O)C(C)(C)O4)n2)cc(OC)c1OC [Tamatinib] (first compound 0.4 µM, partner dose 0.4 µM) | 7.31 | 24.6 | 75.2 | 68.9 | 84.7 | 81.9 | 35.8 | 49.9 | 70.6
CC1(C)CCC(c2ccc(Cl)cc2)=C(CN2CCN(c3ccc(C(=O)NS(=O)(=O)c4ccc(N[C@H](CCN5CCOCC5)CSc5ccccc5)c(S(=O)(=O)C(F)(F)F)c4)cc3)CC2)C1 + CN(NC(=O)CC(=O)NN(C)C(=S)c1ccccc1)C(=S)c1ccccc1 [STA4783] (first compound 0.4 µM, partner dose 0.006 µM) | 51.5 | 33 | 69.7 | 85.6 | 99.5 | 62.3 | 88.2 | 31.3 | 64.4
Cc1ccc(Nc2nccc(N(C)c3ccc4c(C)n(C)nc4c3)n2)cc1S(N)(=O)=O [Pazopanib] + C=CCn1c(=O)c2cnc(Nc3ccc(N4CCN(C)CC4)cc3)nc2n1-c1cccc(C(C)(C)O)n1 [MK1775] (first compound 0.4 µM, partner dose 0.02 µM) | 91.8 | 109 | 112 | 82.2 | 75.4 | 108 |  | 95.4 | 102
Cc1ccc(Nc2nccc(N(C)c3ccc4c(C)n(C)nc4c3)n2)cc1S(N)(=O)=O [Pazopanib] + Oc1nc(-c2ccc(C(F)(F)F)cc2)nc2c1CSCC2 [XAV939] (first compound 0.4 µM, partner dose 2 µM) | 87.9 | 134 | 91.6 | 88.4 | 84.7 | 96.3 | 90.8 | 89.2 | 90.2
O=C(/C=C/c1cccnc1)NCCCCC1CCN(C(=O)c2ccccc2)CC1 + Oc1cc(-c2nc(-c3ccccc3)[nH]c2-c2ccncc2)ccc1Cl [L779450] (first compound 0.01 µM, partner dose 0.2 µM) | 58.8 | 25.8 | 87 | 14.1 | 43.7 | 80.5 | 55.9 | 113 | 48.4
Cc1ccc(Nc2nccc(N(C)c3ccc4c(C)n(C)nc4c3)n2)cc1S(N)(=O)=O [Pazopanib] + c1cc(-c2cnn3cc(-c4ccc(OCCN5CCCCC5)cc4)cnc23)ccn1 [Dorsomorphin] (first compound 0.4 µM, partner dose 0.4 µM) | 106 | 90 | 83.5 | 87.8 | 86.4 | 101 | 110 | 111 | 95
Cc1ccc(Nc2nccc(N(C)c3ccc4c(C)n(C)nc4c3)n2)cc1S(N)(=O)=O [Pazopanib] + N#Cc1c(O)c2c(-c3ccc(-c4ccccc4O)cc3)csc2[nH]c1=O [A769662] (first compound 0.4 µM, partner dose 2 µM) | 98.5 | 91.4 | 105 | 99.4 | 81 | 104 | 102 | 75.2 | 101
Cc1ccc(Nc2nccc(N(C)c3ccc4c(C)n(C)nc4c3)n2)cc1S(N)(=O)=O [Pazopanib] + COc1ccc2c(c1)CCC1C2CCC2(C)C(NCCCCCCN3C(=O)C=CC3=O)CCC12 [U73122] (first compound 0.4 µM, partner dose 0.4 µM) | 96.3 | 105 | 113 | 89 | 84.6 | 98.6 | 87.8 | 91.9 | 90.4
CC1(C)CCC(c2ccc(Cl)cc2)=C(CN2CCN(c3ccc(C(=O)NS(=O)(=O)c4ccc(N[C@H](CCN5CCOCC5)CSc5ccccc5)c(S(=O)(=O)C(F)(F)F)c4)cc3)CC2)C1 + COc1cc(N2CCC(N3CCN(C)CC3)CC2)ccc1Nc1ncc(Cl)c(Nc2ccccc2S(=O)(=O)C(C)C)n1 [NVP-TAE684] (first compound 0.4 µM, partner dose 0.08 µM) | 64.1 | 54 | 119 | 88.2 | 98.1 | 73.2 | 120 | 61.7 | 76.3
CC1(C)CCC(c2ccc(Cl)cc2)=C(CN2CCN(c3ccc(C(=O)NS(=O)(=O)c4ccc(N[C@H](CCN5CCOCC5)CSc5ccccc5)c(S(=O)(=O)C(F)(F)F)c4)cc3)CC2)C1 + O=C(O)c1ccc(-c2c[nH]c3ncc(-c4ccccc4)cc23)cc1C1CCCC1 [GSK650394] (first compound 0.4 µM, partner dose 0.16 µM) | 41.9 | 88.8 | 101 | 79.7 | 103 | 74.6 | 81.2 | 62.7 | 84.1

Reference: the supplement of paper PMC4604168 (melanoma cell lines)
